Among all 310,000 compounds or so, about 2,200 (0.71%) showed an effect of 50% or more. Effects have a minus sign here. The list shows a part of the results. *1 amine or outer side, *2 acyl side, *3 side chain or, on linkers, in order; H or OH if unused. Where a SMILES comes first, the peptide text is derived from it. The star is where a group is joined. CO = O=C([*:1])[*:2]; NHPh = c1ccc(N*)cc1

In this test the target is human ether-à-go-go-related gene (hERG) potassium channel (human, UniProt Q12809). Description: primary screen, population patch clamp on CHO cells stably expressing hERG.
Sequence of human ether-à-go-go-related gene (hERG) potassium channel (Q12809 whole entry, looked up): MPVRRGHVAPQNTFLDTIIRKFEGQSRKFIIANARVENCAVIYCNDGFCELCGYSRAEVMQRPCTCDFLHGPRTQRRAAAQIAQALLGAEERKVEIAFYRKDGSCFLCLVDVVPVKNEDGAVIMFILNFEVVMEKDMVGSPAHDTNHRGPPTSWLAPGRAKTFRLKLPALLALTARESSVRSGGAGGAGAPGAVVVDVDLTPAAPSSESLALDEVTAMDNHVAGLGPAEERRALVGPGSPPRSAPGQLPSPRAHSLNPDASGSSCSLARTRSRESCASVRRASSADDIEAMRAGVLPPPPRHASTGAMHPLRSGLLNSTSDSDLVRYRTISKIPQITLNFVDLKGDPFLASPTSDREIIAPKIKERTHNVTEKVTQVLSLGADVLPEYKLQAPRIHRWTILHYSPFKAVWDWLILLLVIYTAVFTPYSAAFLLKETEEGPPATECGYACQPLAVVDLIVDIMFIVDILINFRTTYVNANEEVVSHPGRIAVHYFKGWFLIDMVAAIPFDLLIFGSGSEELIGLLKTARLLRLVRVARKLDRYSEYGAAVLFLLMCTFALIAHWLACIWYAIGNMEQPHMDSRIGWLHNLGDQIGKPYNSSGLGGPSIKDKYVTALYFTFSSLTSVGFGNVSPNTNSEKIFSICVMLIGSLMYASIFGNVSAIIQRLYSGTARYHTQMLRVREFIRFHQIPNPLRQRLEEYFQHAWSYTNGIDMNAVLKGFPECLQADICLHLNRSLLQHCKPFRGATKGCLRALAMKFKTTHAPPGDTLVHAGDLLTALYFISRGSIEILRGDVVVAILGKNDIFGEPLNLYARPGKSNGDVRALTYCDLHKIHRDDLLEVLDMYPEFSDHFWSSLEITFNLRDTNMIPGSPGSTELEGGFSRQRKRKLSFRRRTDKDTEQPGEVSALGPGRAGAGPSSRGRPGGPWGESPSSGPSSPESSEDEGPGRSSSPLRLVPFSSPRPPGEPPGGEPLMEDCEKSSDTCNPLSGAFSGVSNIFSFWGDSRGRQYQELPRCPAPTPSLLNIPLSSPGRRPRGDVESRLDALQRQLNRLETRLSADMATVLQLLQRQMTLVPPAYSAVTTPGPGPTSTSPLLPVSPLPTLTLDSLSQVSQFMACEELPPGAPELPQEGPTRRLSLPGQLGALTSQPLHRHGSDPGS
On to `CCCCN(C/C=C/c1ccccc1OC)Cc1ccccc1`, for which the “hERG current change (%, negative = inhibition) at 1uM” value came out at 14.4%.

As to `COc1ccc(-c2csc(-c3cccs3)n2)cc1OC`, the “hERG current change (%, negative = inhibition) at 1uM” value worked out at 9.38%.

As to `COc1cccc(NC(=O)c2cc(=O)c3ccccc3o2)c1`, the “hERG current change (%, negative = inhibition) at 1uM” value is recorded as 13.2%.

Regarding `Cc1ccc(C)c(N=Cc2ccc(-c3ccc([N+](=O)[O-])cc3)o2)c1`, the “hERG current change (%, negative = inhibition) at 1uM” value is on record as 12.6%.

`O=C(O)c1ccc(/C=N/Nc2cccc(C(F)(F)F)c2)cc1`: the “hERG current change (%, negative = inhibition) at 1uM” value is on record as 14%.

For the compound `CSc1ccc(CCNC(=O)CCc2nnc3ccc(N4CCOCC4)nn23)cc1`, the “hERG current change (%, negative = inhibition) at 1uM” value was determined as 0.904%.

Take `CN(C)S(=O)(=O)c1cccc(NC(=O)COC(=O)c2ccc([N+](=O)[O-])o2)c1`: the “hERG current change (%, negative = inhibition) at 1uM” value is listed as 4.9%.

As for `Cc1c(C(=O)NCCCN2CCOCC2)sc2nc(-c3ccc(F)cc3)cn12`, the “hERG current change (%, negative = inhibition) at 1uM” value was -16.8%.

In the case of `CC(NC(=O)C1CCN(S(=O)(=O)c2cccc3nonc23)CC1)c1ccccc1` (stereo not drawn), the “hERG current change (%, negative = inhibition) at 1uM” value is 13.9%.

Take `CN(CC(=O)Nc1ccc(N2CCOCC2)cc1)CC(=O)Nc1ccc(C(F)(F)F)cc1`: the “hERG current change (%, negative = inhibition) at 1uM” value was 8.49%.

As for `COc1ccc(Br)cc1CNC(=O)CCc1nc(-c2ccc(C)cc2)no1`, the “hERG current change (%, negative = inhibition) at 1uM” value was 15.4%.

Take `O=C(NCCN1CCOCC1)c1cc(-c2ccccc2Cl)on1`: the “hERG current change (%, negative = inhibition) at 1uM” value is 14%.

With `COc1ccc(NC(=O)C2CC3CCC2C3)c(OC)c1` (stereo not drawn), the “hERG current change (%, negative = inhibition) at 1uM” value is on record as 6.79%.

For `COc1ccc(C(=O)Oc2ccc(C(C)=O)cc2)c(OC)c1`, the “hERG current change (%, negative = inhibition) at 1uM” value stood at 11.5%.

Regarding `O=C(CCn1cnc2ccccc2c1=O)Nc1ccc(S(=O)(=O)N2CCCCC2)cc1`, the “hERG current change (%, negative = inhibition) at 1uM” value was 11.3%.

Consider `O=C(N/N=C/c1ccc(Br)s1)c1ccc([N+](=O)[O-])cc1`, for which the “hERG current change (%, negative = inhibition) at 1uM” value is 1.03%.

In the case of `CCCNC1=C(N(C(C)=O)c2cccc(F)c2)C(=O)c2ccccc2C1=O`, the “hERG current change (%, negative = inhibition) at 1uM” value is recorded as 10.2%.

Regarding `O=C(CN(Cc1ccc(F)cc1)C(=O)CNS(=O)(=O)c1ccccc1)NCc1ccco1`, the “hERG current change (%, negative = inhibition) at 1uM” value turned out to be 10.1%.

For `COc1ccc(C(=O)Nc2nc3ccccc3s2)cc1OC`, the “hERG current change (%, negative = inhibition) at 1uM” value was 7.56%.

With `CC(C)C1Nc2ccc(C(=O)O)cc2C2C=CCC21` (stereo not drawn), the “hERG current change (%, negative = inhibition) at 1uM” value stood at 16.7%.

Turning to `[N-]=[N+]=NC[C@H](Cc1ccccc1)N1CCN(Cc2ccccc2)CCC1=O`, the “hERG current change (%, negative = inhibition) at 1uM” value turned out to be 5.84%.

With `COc1cc(NC(=O)c2sc3ncn(CC(=O)N4CCC(C)CC4)c(=O)c3c2C)cc(OC)c1OC`, the “hERG current change (%, negative = inhibition) at 1uM” value came out at 12.5%.

Turning to `COC(=O)CNC(=O)CNC(=O)Nc1ccccc1` ({NHPh-CO}-Gly-Gly-OMe), the “hERG current change (%, negative = inhibition) at 1uM” value is listed as 4.39%.

`CCc1ccc(C(=O)NNC(=S)Nc2ccc(S(N)(=O)=O)cc2)s1`: the “hERG current change (%, negative = inhibition) at 1uM” value is recorded as 11.6%.
